Results as given in paper PMC4336329 (PLoS ONE, 2015).
About 2,200 (0.71%) of roughly 310,000 compounds showed an effect of 50% or more. Effects have a minus sign here. Some of the results follow. Where a SMILES comes first, the peptide text is derived from it. The star is where a group is joined. Boc = CC(C)(C)OC(=O)*

target: human ether-à-go-go-related gene (hERG) potassium channel (human, UniProt Q12809); assay: primary screen, population patch clamp on CHO cells stably expressing hERG
Sequence (Q12809 whole entry, looked up): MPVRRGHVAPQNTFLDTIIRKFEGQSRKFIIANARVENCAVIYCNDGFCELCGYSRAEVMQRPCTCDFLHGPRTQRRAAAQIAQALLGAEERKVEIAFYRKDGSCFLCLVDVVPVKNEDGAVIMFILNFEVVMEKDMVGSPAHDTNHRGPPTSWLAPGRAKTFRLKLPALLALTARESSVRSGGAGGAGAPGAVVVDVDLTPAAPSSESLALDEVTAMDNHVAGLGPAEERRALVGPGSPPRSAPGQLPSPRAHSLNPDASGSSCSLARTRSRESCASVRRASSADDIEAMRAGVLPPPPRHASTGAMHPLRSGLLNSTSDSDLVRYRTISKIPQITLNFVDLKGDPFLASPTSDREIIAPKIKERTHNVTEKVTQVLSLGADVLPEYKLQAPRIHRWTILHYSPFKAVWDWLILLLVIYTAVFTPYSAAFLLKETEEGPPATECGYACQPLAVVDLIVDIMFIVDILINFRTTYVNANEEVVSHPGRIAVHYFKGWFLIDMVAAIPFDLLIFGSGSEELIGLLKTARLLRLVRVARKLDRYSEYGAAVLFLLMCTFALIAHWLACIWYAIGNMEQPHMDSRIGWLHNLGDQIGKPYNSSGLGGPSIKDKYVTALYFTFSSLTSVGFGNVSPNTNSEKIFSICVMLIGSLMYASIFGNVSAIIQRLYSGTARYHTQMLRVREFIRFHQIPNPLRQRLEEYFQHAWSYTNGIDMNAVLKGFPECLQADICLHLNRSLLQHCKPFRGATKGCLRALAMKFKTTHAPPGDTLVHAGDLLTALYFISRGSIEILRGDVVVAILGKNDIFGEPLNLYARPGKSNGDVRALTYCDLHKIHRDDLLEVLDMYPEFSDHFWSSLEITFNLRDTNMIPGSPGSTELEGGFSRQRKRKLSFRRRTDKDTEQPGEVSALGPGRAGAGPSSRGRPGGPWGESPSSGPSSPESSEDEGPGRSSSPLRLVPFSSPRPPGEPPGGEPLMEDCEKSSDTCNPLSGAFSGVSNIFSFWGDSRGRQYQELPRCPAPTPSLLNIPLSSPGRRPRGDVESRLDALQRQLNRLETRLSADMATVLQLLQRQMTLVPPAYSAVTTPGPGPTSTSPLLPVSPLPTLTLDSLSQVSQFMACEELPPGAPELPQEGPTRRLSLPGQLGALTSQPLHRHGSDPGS

Structure (SMILES) | hERG current change (%, negative = inhibition) at 1uM
CCC(=O)Nc1ccc(-c2nnc(-c3ccccc3)o2)cc1 | 11.1%
O=C(N/N=C/c1cc2c(cc1[N+](=O)[O-])OCO2)c1cccnc1 | 3.92%
O=C(Nc1ccnn1C1CCN(C(=O)c2ccccc2C(F)(F)F)CC1)C1CC1 | 24.5%
CC(=O)Oc1cccc(N2C(=O)CC(Nc3ccc(N4CCOCC4)cc3)C2=O)c1 (centres unmarked) | 7.28%
O=C(O)c1ccc(N2CCOCC2)c(N2C(=O)C3C4C=CC(C4)C3C2=O)c1 (centres unmarked) | 13.2%
CN(C)CC(=O)Nc1cc(C(F)(F)F)ccc1Cl | 11.8%
Cn1c(N/N=C\c2cccc(O)c2)cc(=O)n(C)c1=O | 8.68%
CC(=O)Oc1ccc2oc(/C=C/N(C)C)c([N+](=O)[O-])c2c1 | 14.9%
CSc1ccccc1NC(=O)CN(C)CC(=O)Nc1cccc(Br)c1 | 6.04%
COc1cccc(S(=O)(=O)NCC(=O)N2CCCC2)c1 | 22.1%
Cc1cccn2c(=O)c(/C=C3\SC(=S)N(CC(C)C)C3=O)c(NCCCOC(C)C)nc12 | 0.944%
COC(=O)CCNC(=O)Cn1cnc2sc3c(c2c1=O)CCCC3 | 6.87%
CSCCC(NC(=O)c1ccco1)C(=O)NCC(c1ccccc1)N(C)C (centres unmarked) | 2.41%
CN(Cc1ccccc1)c1nc2c(c(=O)n(C)c(=O)n2C)n1CCCc1ccccc1 | 8.32%
CCOc1ccc2[nH]c(=O)c(CN(CCc3ccccc3)C(=O)c3cnccn3)cc2c1 | 0.505%
COc1ccccc1CNC(=O)C(NS(=O)(=O)c1cccc2nsnc12)C(C)C (centres unmarked) | 7.12%
CC(=O)Nc1ccc(NC(=O)/C=C/c2ccccc2)cc1 | -4.75%
Cn1c(Cc2ccccc2)nnc1SCC(=O)Nc1ccc(N2CCOCC2)cc1 | 9.84%
Cn1nnnc1SCc1cn2cccnc2n1 | 9.44%
O=C(c1cc(COc2ccc3ncccc3c2)on1)N1CCCC(O)C1 (centres unmarked) | 10.7%
Cn1nccc1C(=O)N/N=C/c1ccccc1[N+](=O)[O-] | 11.8%
CCOC(=O)c1ccccc1NC(=O)COC(=O)CSC(C)C(=O)Nc1cc(C)on1 (centres unmarked) | 4.4%
Cc1ccc(S(=O)(=O)N2CCN(c3nc(C(C)C)c4c(c3C#N)CC(C)(C)OC4)CC2)cc1 | 11.8%

Structure (SMILES) | hERG current change (%, negative = inhibition) at 1uM
O=C1NC(=O)/C(=C\c2ccc(Oc3ccc([N+](=O)[O-])cn3)cc2)S1 | 18.5%
COC(=O)c1cc(=O)cc(C(=O)OC)o1 | 9.97%
Cc1cc(C(=O)CSc2nnnn2C)c(C)n1-c1cccc(F)c1 | 1.66%
CCn1c(C)cc(O)cc1=O | 9.68%
CC(=O)Nc1ccc(S(=O)(=O)N2CCC(c3nc4ccc(C)cc4[nH]3)CC2)cc1 | -15.8%
CC12CCC(=O)N1C(C(=O)OCC(=O)Nc1cc(S(=O)(=O)N3CCCCC3)ccc1Cl)CS2 (centres unmarked) | 11.1%
Clc1cccc(CN2CCCCCC2)c1 | 12.3%
Cc1cc(C)c(CN2CCC(n3nccc3NC(=O)CCOc3ccccc3)CC2)cc1C | 14.4%
NC(=O)c1ccc(NC(=O)c2cc(S(=O)(=O)N3CCCCC3)ccc2N2CCOCC2)cc1 | 13.4%
CCSC1=NCCN1C(=O)C(C)(C)Oc1ccc(Cl)cc1 | 12.2%
Cc1ccc(S(=O)(=O)N2CCN(C(=O)c3ccc(COc4ccccc4)o3)CC2)cc1 | 5.45%
CCCCNC(=O)c1onc(CS(=O)(=O)c2ccccn2)c1C(=O)NCCCC | -1.58%
CC(=O)c1c(C)nc(-c2ccccc2)nc1NC(=O)Cc1ccccc1 | 9.16%
CCCc1nc2ccccc2c(=O)n1-c1c(C)n(C)n(-c2ccccc2)c1=O | 0.991%
CC[C@]1(c2ccccc2C)ON(c2ccccc2C(F)(F)F)C1=O | 9.17%
O=C(NNC(=O)C1[C@H]2CCCC[C@@H]12)NC1CCCCC1 (some centres unmarked) | 7.63%
Cc1cccc(CN2CCCN(Cc3ccc(Cl)cc3)S2(=O)=O)c1 | 3.91%
Cc1nc(SCc2cccc(F)c2)[nH]c(=O)c1C#N | 0.264%
O=C(O)C(=O)O.O=C(c1ccccc1)N1CCN(Cc2ccccc2C(F)(F)F)CC1 | 9.4%
CCN(CC)CCCNC(=O)c1cc2c(=O)[nH]c3ccc(C)cc3c2s1 | 14.6%
CC1CN(CCCCN2C(=O)c3ccccc3C2=O)CC(C)O1.O=C(O)C(=O)O (centres unmarked) | 10.5%
CC(C)CC(NC(=O)C1CCC(=O)N1C(=O)OCc1ccccc1)C(=O)NC(Cc1ccccc1)C(N)=O (centres unmarked) | 17.7%
COC(=O)c1sccc1NC(=S)NCc1ccc(Cl)cc1 | 15.6%

Structure (SMILES) | hERG current change (%, negative = inhibition) at 1uM
COc1ccccc1CNC(=O)C1CCN(c2ncnc3c2nc2n3CCCCC2)CC1 | 11.9%
CCOc1ccccc1NC(=O)c1ccc(S(=O)(=O)N2CCCCC2)cc1 | 12.6%
N/C(Cn1nnc(-c2ccccc2)n1)=N\O | -2.88%
CCC(C)C(NC(=O)OC(C)(C)C)C(=O)NC(C)C(N)=O (stereo not drawn) (Boc-Ile-Ala-NH2; configuration not given here) | 11.1%
COc1cc2nc(CN3C(=O)c4ccccc4C3=O)oc(=O)c2cc1OC | 17.4%
C#CCN(C)CC/C=C1\c2ccccc2CSc2ccccc21.Cl | 3.79%
Cc1cc(N)n(-c2nc3ccccc3s2)n1 | -0.476%
CC1CCCC(C)N1CCNC(=O)Cn1nc(-c2ccccc2)ccc1=O (centres unmarked) | -2.41%
CCCCOC(=O)Nc1sc2c(c1C(=O)OC)CCC2 | 2.38%
COC(=O)CSc1nnc(-c2ccc(OC)cc2OC)o1 | -4.1%
Cc1c(C(=O)NCC2CCCO2)oc2ccc3c(c12)C(=O)CC(C)(C)O3 (centres unmarked) | 10%
FC(F)(F)c1nc2nncn2c2c1CCCCC2 | -0.576%
CCCc1cc(SCC(=O)Nc2c(C)n(C)n(-c3ccccc3)c2=O)n2c(nc3ccccc32)c1C#N | 5.01%
O=C(OCC(=O)c1c[nH]c2ccccc12)C1=COCCO1 | 10.1%
CCOC(=O)C1=C(COC(=O)C(CC)c2ccccc2)NC(=O)NC1C (centres unmarked) | 14.9%
COc1cc(SC)ccc1C(=O)OCC(=O)NCCC1=CCCCC1 | 8.39%
COc1ccccc1-c1nnc(NC(=O)c2ccccc2F)o1 | 3.1%
CCOc1ccc(NC(=O)CSc2nnc(Cc3cccn3C)n2-c2ccc(OC)cc2)cc1 | -5.16%
CSc1ccccc1NC(=O)CO/N=C(\C)c1cc2ccccc2o1 | 6.83%
COc1ccc(C(=O)C2CCCN(C(=O)CSC)C2)cc1OC (centres unmarked) | 11.9%
O=S(=O)(c1ccc(N2CCCC2)cc1)C(F)(F)F | 10%
O=C(CCc1nc(-c2ccccc2F)no1)Nc1cccnc1 | 5.53%
COC(=O)CCC(=O)Nc1nccs1 | 6.03%

Structure (SMILES) | hERG current change (%, negative = inhibition) at 1uM
Cc1cccc(N2CC3=C(C2=O)C(c2ccccc2)NC(=O)N3C)c1 (centres unmarked) | -8.06%
COc1cc(SC)ccc1C(=O)Nc1nccs1 | -4.11%
Cc1cccc(C(=O)Nc2sc(C)c(-c3ccccc3)c2C#N)c1 | 11.7%
COc1c(OC(C)=O)ccc(/C=C/c2ccc3cccc(OC)c3n2)c1[N+](=O)[O-] | 15.5%
Cc1cccc(C)c1NC(=O)c1nc(S(=O)(=O)Cc2ccccc2)ncc1Cl | 13%
CCc1ccccc1NC(=O)c1cc(-c2cccs2)on1 | 11%
CN(C(=O)CN1C(=O)NC(c2ccccc2)(c2ccccc2)C1=O)C1CCS(=O)(=O)C1 (centres unmarked) | 15%
CCSc1nnc([C@H](Cc2c[nH]c3ccccc23)NC(=O)OC(C)(C)C)o1 | 5.13%
O=c1[nH]nc(-c2cccs2)c2ccccc12 | 8.52%
Cc1nn(CC(=O)OCCOc2ccc(Br)cc2)c(C)c1[N+](=O)[O-] | -2.66%
c1ccc(Cc2nc3ccccc3[nH]2)cc1 | 1.24%
Cc1ccc(C)c(NC(=O)CCN2CCN(C)CC2)c1 | 13.6%
CN(Cc1cn(C)nc1-c1cccc(Cl)c1)Cc1nccn1C | 5.26%
CN(C(=O)c1ccc(OC2CCN(CCc3ccccc3)CC2)cc1)C1CCOC1 (centres unmarked) | 4.27%
COc1ccc(S(=O)(=O)N2CCOCC2)cc1NC(=O)c1cccc(-n2cccc2)c1 | -0.783%
CCCCOc1ccc(/C=C/C(=O)OCC(=O)NC2CCS(=O)(=O)C2)cc1OCC (centres unmarked) | 14.6%
CN(C)S(=O)(=O)c1cccc(C(=O)OCC(=O)NCc2ccccc2)c1 | 3.55%
CCc1ccc(CNC(=O)CCCn2nc(C)n3ccnc3c2=O)cc1 | 11.2%
O=c1c2ccccc2nc(SCc2nnc(-c3ccccc3)o2)n1-c1ccccc1 | 11.6%
COc1ccc(S(=O)(=O)Cc2ccc(C(=O)N3CCN(C(=O)c4ccco4)CC3)o2)cc1 | -0.815%
